Laboratory results published in article PMC7819943, “Rice protein-binding microarrays: a tool to detect cis-acting elements near promoter regions in rice”.
The list shows a part of the results.

molecular target: T1, OsWOX13 (Oryza sativa, UniProt Q5QMM3 1-267); assay: protein-binding microarray (RPBM); PBS, 2% BSA, 51.3 ng/ul salmon testes DNA, 50 uM zinc acetate, 200 nM TF, 25 C, 1 h; high values mean tight binding; conditions: protein: recombinant; tags: N-terminal polyhistidine and DsRed monomer fusion (pET32a); label: CyDye5-dUTP incorporated in the synthesized complementary strand; 3' TTTTT single-stranded linker to array surface; dsDNA, one strand shown
T1 sequence: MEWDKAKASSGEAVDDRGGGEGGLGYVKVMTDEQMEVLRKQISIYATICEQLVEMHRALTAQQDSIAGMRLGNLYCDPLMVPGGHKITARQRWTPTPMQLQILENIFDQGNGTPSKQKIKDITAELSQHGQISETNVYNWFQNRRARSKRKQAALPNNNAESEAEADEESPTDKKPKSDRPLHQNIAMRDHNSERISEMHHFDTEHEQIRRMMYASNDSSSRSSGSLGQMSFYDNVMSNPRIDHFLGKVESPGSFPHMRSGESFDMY
Method in brief: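 Transcription factors were each fused at the N-terminus to a polyhistidine tag plus DsRed and expressed in E. coli BL21-CodonPlus before Ni–NTA purification. Binding to a double-stranded custom Agilent array was carried out with 200 nM protein at 25 °C for 1 h in PBS, 2% BSA, salmon testes DNA and 50 µM zinc acetate. The binding signal is per-feature fluorescence intensity, in arbitrary units, on an Axon 4000B scanner.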

Sequence | binding signal
TTGAAATTGGAGATGATGTGACTGAAAAGTTGTGTGTGTACGGAGTCACCTAGTGCAG | 21000 fluorescence intensity (a.u.)
ACATAGAATCATCTTAATTGTGCGGAAGAAACAAAGCATGCGGAGTCACCTAGTGCAG | 3900 fluorescence intensity (a.u.)
AGATCGATTGATGATATCTCTCGGTTATGACTTTTAGTAGCGGAGTCACCTAGTGCAG | 8770 fluorescence intensity (a.u.)
TTCTAATTTTACATTGTCCAAAACAAACGGTAGGGCGCCGCGGAGTCACCTAGTGCAG | 7730 fluorescence intensity (a.u.)
ATTAATGGCTTTGATGTGTTCTGCGTGTGATAAGATCTAACGGAGTCACCTAGTGCAG | 3380 fluorescence intensity (a.u.)
GCACTAAATGATTAGATGAAGGACAAGGACTAAGAGGAGGCGGAGTCACCTAGTGCAG | 43300 fluorescence intensity (a.u.)
CAAAATGGACAAAATATGTCATCTATTAAAATAGGCATAACGGAGTCACCTAGTGCAG | 4880 fluorescence intensity (a.u.)
TGGTGATTAACTACAACTAATTGTCAATCTAACACTCCCACGGAGTCACCTAGTGCAG | 50400 fluorescence intensity (a.u.)
TTGTGTAATGATATATCACATATTGATGTATATTACTCCCCGGAGTCACCTAGTGCAG | 6370 fluorescence intensity (a.u.)
CATTGGAAATTGTTTATATCATTGAGAATAAACAAGGAAGCGGAGTCACCTAGTGCAG | 3310 fluorescence intensity (a.u.)
CTCCAGTTATCTTTTAATTTTCCGCTGCATTTATGTAAGACGGAGTCACCTAGTGCAG | 6990 fluorescence intensity (a.u.)
AATACTAATTTGGAATTTTCCATCAATGACGTTACACAAACGGAGTCACCTAGTGCAG | 22100 fluorescence intensity (a.u.)
CTTGACAGGCACCGTGATACTTGGGTTCTTGATATAACTGCGGAGTCACCTAGTGCAG | 34400 fluorescence intensity (a.u.)
TCAAATTTTAATGTTTATAAATATTACACATATGTAGTGGCGGAGTCACCTAGTGCAG | 9930 fluorescence intensity (a.u.)
TGCACAGATCCATGATTGGCTGGTTAAAACTCAAAATCACCGGAGTCACCTAGTGCAG | 18300 fluorescence intensity (a.u.)
CATGAAATTTGGGTGTTCATTACCATGATTGTGACTTTATCGGAGTCACCTAGTGCAG | 5190 fluorescence intensity (a.u.)
TTTAATAATTTACGTTTATATACCTGCATTGGACGGATCCCGGAGTCACCTAGTGCAG | 22000 fluorescence intensity (a.u.)
ATGATGCATGATTGAGTTGTTATCTGAGCACTTAGAGGTGCGGAGTCACCTAGTGCAG | 34400 fluorescence intensity (a.u.)
GGCTCATTGATTACGGTAAAATAGAGGTATAAAGGTTATACGGAGTCACCTAGTGCAG | 19900 fluorescence intensity (a.u.)
CCAATGATTGATCGATTTCTCTCCATACGCCGTGTGCCAACGGAGTCACCTAGTGCAG | 59700 fluorescence intensity (a.u.)
CCGGATGATATATAATTGCACGCATGGCATTTCATGATGCCGGAGTCACCTAGTGCAG | 21200 fluorescence intensity (a.u.)

Sequence | binding signal
TGCCTTTGATTAATGTCATGATGTCACATGCTGAGATTCACGGAGTCACCTAGTGCAG | 11900 fluorescence intensity (a.u.)
AATAATATCAATGATGGACGTTTGGTAACTAAATGTTAATCGGAGTCACCTAGTGCAG | 11300 fluorescence intensity (a.u.)
AAACATTTAATTTCTAACACCTAATATGCACAAACACACACGGAGTCACCTAGTGCAG | 3920 fluorescence intensity (a.u.)
GGTGATTTTATATATATTCACGCATTTCGTGGACCTTCTTCGGAGTCACCTAGTGCAG | 7570 fluorescence intensity (a.u.)
GATAATTTAATTGTGATGATTTACTCAGCTTGTTTGCAGTCGGAGTCACCTAGTGCAG | 47500 fluorescence intensity (a.u.)
TTCTCCATTCCAAATTAAATTATGGGATAAACATATCGTACGGAGTCACCTAGTGCAG | 8190 fluorescence intensity (a.u.)
CAACCAATCAACTTAGGGCATTATTAGCAGTTTAATAGTACGGAGTCACCTAGTGCAG | 10900 fluorescence intensity (a.u.)
TAAACTTATAATTATAATGTTATAATAATATTTGAAGGCACGGAGTCACCTAGTGCAG | 19500 fluorescence intensity (a.u.)
TAACAAGATGATTATGCGCGTATGTTTATGAGAGTGAGTGCGGAGTCACCTAGTGCAG | 5630 fluorescence intensity (a.u.)
ACAAATTAGAAATTTGGAACAAAGGCTAGTCGCTACCTCACGGAGTCACCTAGTGCAG | 22100 fluorescence intensity (a.u.)
GGATAGATTGTTGTTGTCCCAAACTTGTGGCTCTGTGCTGCGGAGTCACCTAGTGCAG | 18300 fluorescence intensity (a.u.)
TGTACTGATAGCGTGATTGAATTCATGGCCTCTTTCTGCCCGGAGTCACCTAGTGCAG | 44400 fluorescence intensity (a.u.)
TCTGCAATTACACGCGTTAAATTTGACACTACTACAATTTCGGAGTCACCTAGTGCAG | 22000 fluorescence intensity (a.u.)
GTCTACGGGGAATTTAATTGCTTGGTACTACTTACTTGGTCGGAGTCACCTAGTGCAG | 4380 fluorescence intensity (a.u.)
GAAGCAATCAAGCAGTAGCATCATATTGTCCACATCGTCGCGGAGTCACCTAGTGCAG | 4490 fluorescence intensity (a.u.)
GAGTTCAGGATCAATCAGTTTGACCAACCAAACAACTTCACGGAGTCACCTAGTGCAG | 4980 fluorescence intensity (a.u.)
AACCACTCACTAGTGCTAATTGTTTTATTTAACATTGATTCGGAGTCACCTAGTGCAG | 6540 fluorescence intensity (a.u.)
CATGACTGTCTGTTTGAATTCCAAACACATACGTAATACACGGAGTCACCTAGTGCAG | 7910 fluorescence intensity (a.u.)
AGCGATTAGTAAGTGGATTGGATCTAACTAAGCTTGCTACCGGAGTCACCTAGTGCAG | 9310 fluorescence intensity (a.u.)
CATGCATGCTTTGATGAGAGTAATTAAGTACGGCAAGCATCGGAGTCACCTAGTGCAG | 3200 fluorescence intensity (a.u.)
TGTAGTGATTTACTTCTTTTCAATATGCCTTCGTTTAATTCGGAGTCACCTAGTGCAG | 4790 fluorescence intensity (a.u.)
